The full ranking holds about 2,900 compounds; the median of “IRF Lucia reporter activity, fold change vs agonist alone” is about 0.9, and the highest 2% start at about 2.8. This is one part of the list.
Assays:
RAW-Dual [1] = test: IRF Lucia reporter activity, fold change vs agonist alone; cytotoxicity flag (confluency mask): not cytotoxic; higher = enhanced IRF activity
Method in brief: (§1)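 RAW-Dual macrophages (50,000 cells/well in DMEM, 384-well plates) received 50 nL of library stock by pin tool, then a PRR agonist 1 h later, and were kept at 37 °C, 5% CO2. After 20 hours, supernatant was read for IRF by QuantiLuc luminescence and for NF-κB by QuantiBlue absorbance at 620 nm. Reporter activity is fold change over agonist-alone wells. Cytotoxic wells had IncuCyte confluency below 70% of agonist controls in both mask sets.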

RAW-Dual [2] = test: IRF Lucia reporter activity, fold change vs agonist alone; cytotoxicity flag (confluency mask): cytotoxic (confluency <70% of control); higher = enhanced IRF activity
Method in brief: as §1

RAW-Dual [3] = test: IRF Lucia reporter activity, fold change vs agonist alone; higher = enhanced IRF activity; details: library stock concentration (final ~1000-fold dilution): 10 mM, agonist: MPLA (TLR4) […]
Method in brief: as §1

[4] = agonist: 3'3'-cGAMP (STING) 10 ug/mL
[5] = cytotoxicity flag (confluency mask): not cytotoxic

CCC12C=CCN3CCC4(C(=C(C(=O)OC)C1)Nc1ccccc14)C32 (configuration not stated) (library stock concentration (final ~1000-fold dilution): 10 mM)
IRF Lucia reporter activity (RAW-Dual [1]; [4]): 0.0884
IRF Lucia reporter activity (RAW-Dual [1]; agonist: LPS (TLR4) 0.1 ug/mL): 0.14

Cl.Cl.Fc1ccc(C(OCCN2CCN(CCCc3ccccc3)CC2)c2ccc(F)cc2)cc1 (library stock concentration (final ~1000-fold dilution): 10 mM)
IRF Lucia reporter activity (RAW-Dual [2]; [4]): 0.202
IRF Lucia reporter activity (RAW-Dual [2]; agonist: LPS (TLR4) 0.1 ug/mL): 0.637

Cl.Cl.Fc1ccc(C(OCCN2CCN(CCCc3ccccc3)CC2)c2ccc(F)cc2)cc1
IRF Lucia reporter activity (RAW-Dual [3]; cytotoxicity flag (confluency mask): cytotoxic (confluency <70% of control)): 0.846

O=C(CBr)N1CC([N+](=O)[O-])([N+](=O)[O-])C1 (library stock concentration (final ~1000-fold dilution): 10 mM)
IRF Lucia reporter activity (RAW-Dual [2]; [4]): 0.129
IRF Lucia reporter activity (RAW-Dual [2]; agonist: LPS (TLR4) 0.1 ug/mL): 0.0763

O=C(OC1CC2CCC(C1)[N+]21CCCC1)C(O)(c1ccccc1)c1ccccc1 (configuration not stated) (library stock concentration (final ~1000-fold dilution): 10 mM)
IRF Lucia reporter activity (RAW-Dual [1]; [4]): 0.947
IRF Lucia reporter activity (RAW-Dual [1]; agonist: LPS (TLR4) 0.1 ug/mL): 1.01

O=C(OC1CC2CCC(C1)[N+]21CCCC1)C(O)(c1ccccc1)c1ccccc1 (configuration not stated)
IRF Lucia reporter activity (RAW-Dual [3]; [5]): 0.921

O=C(O)CC[N+](=O)[O-]
IRF Lucia reporter activity (RAW-Dual [3]; [5]): 1.17

O=C(O)CC[N+](=O)[O-] (library stock concentration (final ~1000-fold dilution): 10 mM)
IRF Lucia reporter activity (RAW-Dual [1]; [4]): 1.04
IRF Lucia reporter activity (RAW-Dual [1]; agonist: LPS (TLR4) 0.1 ug/mL): 1

CC(C)=CCCC(C)(O)C1CCC2(C)C1C(O)CC1C3(C)CCC(OC4OC(CO)C(O)C(O)C4O)C(C)(C)C3CCC12C (configuration not stated) (library stock concentration (final ~1000-fold dilution): 10 mM)
IRF Lucia reporter activity (RAW-Dual [1]; [4]): 0.948
IRF Lucia reporter activity (RAW-Dual [1]; agonist: LPS (TLR4) 0.1 ug/mL): 0.902

Nc1ncnc2c1ccn2C1OC(CO)C(O)C1O (configuration not stated) (library stock concentration (final ~1000-fold dilution): 10 mM)
IRF Lucia reporter activity (RAW-Dual [2]; [4]): 0.0112
IRF Lucia reporter activity (RAW-Dual [2]; agonist: LPS (TLR4) 0.1 ug/mL): 0.0189

COc1cc2c(cc1OC)C(Cc1ccc(O)c(Oc3cc4c(cc3OC)CCN(C)C4Cc3ccc(O)cc3)c1)N(C)CC2.[O-][Cl+3]([O-])([O-])O (configuration not stated) (library stock concentration (final ~1000-fold dilution): 10 mM)
IRF Lucia reporter activity (RAW-Dual [1]; [4]): 0.0548
IRF Lucia reporter activity (RAW-Dual [1]; agonist: LPS (TLR4) 0.1 ug/mL): 0.74

O=C(O)CNC(=O)C1C(=O)N(C2CCCCC2)C(=O)N(C2CCCCC2)C1=O (library stock concentration (final ~1000-fold dilution): 10 mM)
IRF Lucia reporter activity (RAW-Dual [1]; [4]): 0.947
IRF Lucia reporter activity (RAW-Dual [1]; agonist: LPS (TLR4) 0.1 ug/mL): 1.18

Cl.NC1CC1c1ccccc1 (configuration not stated) (library stock concentration (final ~1000-fold dilution): 10 mM)
IRF Lucia reporter activity (RAW-Dual [1]; [4]): 1.08
IRF Lucia reporter activity (RAW-Dual [1]; agonist: LPS (TLR4) 0.1 ug/mL): 1.14

Cl.NC1CC1c1ccccc1 (configuration not stated)
IRF Lucia reporter activity (RAW-Dual [3]; [5]): 1.09

COc1ccc2c(c1OC)CN1CCc3cc4c(cc3C1C2)OCO4 (configuration not stated) (library stock concentration (final ~1000-fold dilution): 10 mM)
IRF Lucia reporter activity (RAW-Dual [1]; [4]): 0.849
IRF Lucia reporter activity (RAW-Dual [1]; agonist: LPS (TLR4) 0.1 ug/mL): 1.29

COc1ccc2c(c1OC)CN1CCc3cc4c(cc3C1C2)OCO4 (configuration not stated)
IRF Lucia reporter activity (RAW-Dual [3]; [5]): 1.14

From the supplement of paper PMC10037445
